Changes are numbered by the printed parent chain; changes in the protein carry UniProt numbers. The list shows a part of the results.
T1: RBFOX1 RRM RbFoxmut (Fox-RRM*) (Homo sapiens, UniProt Q9NWB1 109-208, R118D;E147R;N151S;E152T)
T1 sequence: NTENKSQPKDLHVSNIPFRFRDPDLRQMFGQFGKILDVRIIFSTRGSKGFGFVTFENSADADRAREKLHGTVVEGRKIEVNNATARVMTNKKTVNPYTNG

B1: GUCUGAA (DNA:RNA)
RNA: GGGAGACCGGAAUUCAGAUUGUCCGUCUGAAUUAAAUCCCGUCGUAGCCACCA
DNA 1: CAATCTGAATTCCGGTCTCCC
DNA 2: TGGTGGCTACGACGGGATT
B2: GUGCCCA (DNA:RNA)
RNA: B1 RNA with C27G, U28C, G29C, A30C
DNA 1: CAATCTGAATTCCGGTCTCCC
DNA 2: TGGTGGCTACGACGGGATT
B3: UACUGUA (DNA:RNA)
RNA: B1 RNA with G25U, U26A, A30U
DNA 1: CAATCTGAATTCCGGTCTCCC
DNA 2: TGGTGGCTACGACGGGATT
B4: UUAAUUC (DNA:RNA)
RNA: B1 RNA with G25U, C27A, U28A, G29U, A30U, A31C
DNA 1: CAATCTGAATTCCGGTCTCCC
DNA 2: TGGTGGCTACGACGGGATT
B5: AUCCAUG (DNA:RNA)
RNA: B1 RNA with G25A, U28C, G29A, A30U, A31G
DNA 1: CAATCTGAATTCCGGTCTCCC
DNA 2: TGGTGGCTACGACGGGATT
B6: GACAUGC (DNA:RNA)
RNA: B1 RNA with U26A, U28A, G29U, A30G, A31C
DNA 1: CAATCTGAATTCCGGTCTCCC
DNA 2: TGGTGGCTACGACGGGATT
B7: CCCCGCA (DNA:RNA)
RNA: B1 RNA with G25C, U26C, U28C, A30C
DNA 1: CAATCTGAATTCCGGTCTCCC
DNA 2: TGGTGGCTACGACGGGATT
B8: GGGUGGU (DNA:RNA)
RNA: B1 RNA with U26G, C27G, A30G, A31U
DNA 1: CAATCTGAATTCCGGTCTCCC
DNA 2: TGGTGGCTACGACGGGATT
B9: AUACGAG (DNA:RNA)
RNA: B1 RNA with G25A, C27A, U28C, A31G
DNA 1: CAATCTGAATTCCGGTCTCCC
DNA 2: TGGTGGCTACGACGGGATT
B10: AAGUUGG (DNA:RNA)
RNA: B1 RNA with G25A, U26A, C27G, G29U, A30G, A31G
DNA 1: CAATCTGAATTCCGGTCTCCC
DNA 2: TGGTGGCTACGACGGGATT
B11: UCUAAAG (DNA:RNA)
RNA: B1 RNA with G25U, U26C, C27U, U28A, G29A, A31G
DNA 1: CAATCTGAATTCCGGTCTCCC
DNA 2: TGGTGGCTACGACGGGATT
B12: GAUCGGC (DNA:RNA)
RNA: B1 RNA with U26A, C27U, U28C, A30G, A31C
DNA 1: CAATCTGAATTCCGGTCTCCC
DNA 2: TGGTGGCTACGACGGGATT
B13: GUAGUGC (DNA:RNA)
RNA: B1 RNA with C27A, U28G, G29U, A30G, A31C
DNA 1: CAATCTGAATTCCGGTCTCCC
DNA 2: TGGTGGCTACGACGGGATT
B14: GUCUUGC (DNA:RNA)
RNA: B1 RNA with G29U, A30G, A31C
DNA 1: CAATCTGAATTCCGGTCTCCC
DNA 2: TGGTGGCTACGACGGGATT
B15: CUAAACC (DNA:RNA)
RNA: B1 RNA with G25C, C27A, U28A, G29A, A30C, A31C
DNA 1: CAATCTGAATTCCGGTCTCCC
DNA 2: TGGTGGCTACGACGGGATT
B16: UCGGUUA (DNA:RNA)
RNA: B1 RNA with G25U, U26C, C27G, U28G, G29U, A30U
DNA 1: CAATCTGAATTCCGGTCTCCC
DNA 2: TGGTGGCTACGACGGGATT
B17: CUAUACU (DNA:RNA)
RNA: B1 RNA with G25C, C27A, G29A, A30C, A31U
DNA 1: CAATCTGAATTCCGGTCTCCC
DNA 2: TGGTGGCTACGACGGGATT
B18: GCCUUUA (DNA:RNA)
RNA: B1 RNA with U26C, G29U, A30U
DNA 1: CAATCTGAATTCCGGTCTCCC
DNA 2: TGGTGGCTACGACGGGATT
B19: CUGACUA (DNA:RNA)
RNA: B1 RNA with G25C, C27G, U28A, G29C, A30U
DNA 1: CAATCTGAATTCCGGTCTCCC
DNA 2: TGGTGGCTACGACGGGATT
B20: UUAAAGG (DNA:RNA)
RNA: B1 RNA with G25U, C27A, U28A, G29A, A30G, A31G
DNA 1: CAATCTGAATTCCGGTCTCCC
DNA 2: TGGTGGCTACGACGGGATT
B21: GAUAUCU (DNA:RNA)
RNA: B1 RNA with U26A, C27U, U28A, G29U, A30C, A31U
DNA 1: CAATCTGAATTCCGGTCTCCC
DNA 2: TGGTGGCTACGACGGGATT
B22: CCCUGUC (DNA:RNA)
RNA: B1 RNA with G25C, U26C, A30U, A31C
DNA 1: CAATCTGAATTCCGGTCTCCC
DNA 2: TGGTGGCTACGACGGGATT
B23: CGAGGUU (DNA:RNA)
RNA: B1 RNA with G25C, U26G, C27A, U28G, A30U, A31U
DNA 1: CAATCTGAATTCCGGTCTCCC
DNA 2: TGGTGGCTACGACGGGATT
B24: UGACACG (DNA:RNA)
RNA: GGGAGACCGGAAUUCAGAUUGUCCUGACACGUUAAAUCCCGUCGUAGCCACCA
DNA 1: CAATCTGAATTCCGGTCTCCC
DNA 2: TGGTGGCTACGACGGGATT
B25: AACCAAU (DNA:RNA)
RNA: B1 RNA with G25A, U26A, U28C, G29A, A31U
DNA 1: CAATCTGAATTCCGGTCTCCC
DNA 2: TGGTGGCTACGACGGGATT
B26: UCACACC (DNA:RNA)
RNA: B24 RNA with G26C, G31C
DNA 1: CAATCTGAATTCCGGTCTCCC
DNA 2: TGGTGGCTACGACGGGATT
B27: GGUGAAG (DNA:RNA)
RNA: B24 RNA with U25G, A27U, C28G, C30A
DNA 1: CAATCTGAATTCCGGTCTCCC
DNA 2: TGGTGGCTACGACGGGATT
B28: UGUGGAG (DNA:RNA)
RNA: B24 RNA with A27U, C28G, A29G, C30A
DNA 1: CAATCTGAATTCCGGTCTCCC
DNA 2: TGGTGGCTACGACGGGATT
B29: GAUCUGC (DNA:RNA)
RNA: B1 RNA with U26A, C27U, U28C, G29U, A30G, A31C
DNA 1: CAATCTGAATTCCGGTCTCCC
DNA 2: TGGTGGCTACGACGGGATT
B30: CGCCACA (DNA:RNA)
RNA: B24 RNA with U25C, A27C, G31A
DNA 1: CAATCTGAATTCCGGTCTCCC
DNA 2: TGGTGGCTACGACGGGATT
B31: GUGUUUG (DNA:RNA)
RNA: B1 RNA with C27G, G29U, A30U, A31G
DNA 1: CAATCTGAATTCCGGTCTCCC
DNA 2: TGGTGGCTACGACGGGATT

Molecular target: T1, RBFOX1 RRM RbFoxmut (Fox-RRM*)
Assay: EMSA; HiTS-Eq, 1 nM pool, 10 min; buffer printed only for the single-RNA assays: 10 mM Tris pH 7.5, 150 mM NaCl, 3.4 mM EDTA, 0.001% NP-40, 30 C
Settings: tags: His6 N-terminal (pET28a); label: 5' 32P
How it was run: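 A pool of RNA with 7 randomized nucleotides, 5′-radiolabelled and with DNA-annealed flanks, was equilibrated at 1 nM for 10 min in 50 µL with purified RbFox RRM, wild type or mutant, across increasing protein concentrations. Free RNA was separated by 8% native PAGE, excised, reverse-transcribed, barcoded by PCR and sequenced. Relative association constants were obtained from read-count changes of each RNA species versus the control reaction and normalised to the cognate motif.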

Binder	binding signal
B1	0.0932 KA relative to UGCAUGU
B2	0.0672 KA relative to UGCAUGU
B3	0.173 KA relative to UGCAUGU
B4	0.0842 KA relative to UGCAUGU
B5	0.1 KA relative to UGCAUGU
B6	0.0819 KA relative to UGCAUGU
B7	0.118 KA relative to UGCAUGU
B8	0.133 KA relative to UGCAUGU
B9	0.139 KA relative to UGCAUGU
B10	0.0994 KA relative to UGCAUGU
B11	0.122 KA relative to UGCAUGU
B12	0.108 KA relative to UGCAUGU
B13	0.174 KA relative to UGCAUGU
B14	0.502 KA relative to UGCAUGU
B15	0.0479 KA relative to UGCAUGU
B16	0.115 KA relative to UGCAUGU

Binder	binding signal
B17	0.11 KA relative to UGCAUGU
B18	0.0986 KA relative to UGCAUGU
B19	0.0905 KA relative to UGCAUGU
B20	0.0815 KA relative to UGCAUGU
B21	0.0914 KA relative to UGCAUGU
B22	0.194 KA relative to UGCAUGU
B23	0.0909 KA relative to UGCAUGU
B24	0.121 KA relative to UGCAUGU
B25	0.0598 KA relative to UGCAUGU
B26	0.0564 KA relative to UGCAUGU
B27	0.0796 KA relative to UGCAUGU
B28	0.15 KA relative to UGCAUGU
B29	0.0664 KA relative to UGCAUGU
B30	0.103 KA relative to UGCAUGU
B31	0.68 KA relative to UGCAUGU

Source: publication PMC9911399, “Two distinct binding modes provide the RNA-binding protein RbFox with extraordinary sequence specificity”
